Laboratory results published in PubChem BioAssay AID485344 (National Center for Advancing Translational Sciences (NCATS), 2010).
Among all 340,000 compounds or so, about 6,900 (2%) were called active. No stated cut-off is given here; in the data, active means inhibition above about 30%; inactive means below that, where a call was filed. The entries are a selection whose mix differs from that of the whole data set. Where no call is shown, the source filed none.

The compounds below were run against D(2) dopamine receptor (Homo sapiens) (UniProt P14416) (assay: HTS Assay for Allosteric Antagonists of the Human D2 Dopamine Receptor: Primary Screen for Antagonists). Details: HEK293 TREx D2 cells, calcium flux, dopamine EC80; at 10 µM; stronger effect = higher value.
Sequence of UniProt P14416 (P14416 whole entry, looked up): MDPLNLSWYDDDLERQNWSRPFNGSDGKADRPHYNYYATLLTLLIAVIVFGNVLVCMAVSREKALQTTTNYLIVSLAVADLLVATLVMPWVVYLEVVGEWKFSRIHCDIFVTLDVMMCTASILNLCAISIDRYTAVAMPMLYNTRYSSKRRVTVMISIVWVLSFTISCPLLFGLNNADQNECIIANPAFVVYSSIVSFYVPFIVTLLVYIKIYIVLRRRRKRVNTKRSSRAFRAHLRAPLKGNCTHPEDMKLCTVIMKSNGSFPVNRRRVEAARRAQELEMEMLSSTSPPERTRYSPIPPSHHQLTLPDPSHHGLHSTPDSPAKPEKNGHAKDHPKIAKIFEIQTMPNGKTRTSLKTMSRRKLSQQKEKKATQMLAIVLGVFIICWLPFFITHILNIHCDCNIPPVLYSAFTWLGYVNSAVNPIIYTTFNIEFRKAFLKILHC
Procedure, shortened: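 In this primary screen, negative modulation is detected by tracking calcium flux after an EC80 dopamine challenge in inducible HEK293 T-REx D2 cells preexposed to test compound for 180 s.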
Further: 0% is about no effect.

SMILES	inhibition
O=S(=O)(NCC(c1ccco1)N1CCN(c2ccc(F)cc2)CC1)c1ccccc1 (stereo not drawn)	-17.7%
CCn1c(=N)c(C(=O)NCc2cccnc2)cc2c(=O)n3cc(C)ccc3nc21	-14%
COc1ccc(-c2nc(CSCC(=O)NCCc3ccc(C)cc3)c(C)o2)cc1OC	12.3%
CCC(Cc1ccccc1)NC(=O)c1oc(=O)c2ccccc2c1-c1ccccc1 (stereo not drawn)	-21.8%
COc1ccc2nc(NC(=O)c3ccc(S(=O)(=O)N4CCC(C)CC4)cc3)sc2c1	0.0941%
COC(=O)c1ccccc1NC(=O)c1noc2c1CSc1ccccc1-2	1.11%
CCc1ccc(NC(=O)N2CCN(Cc3cc(=O)n4nc(-c5ccccc5OC)sc4n3)CC2)cc1	-0.441%
Cc1cccc(C)c1OCCCCn1c(C2CC(=O)N(c3ccc(F)cc3)C2)nc2ccccc21 (stereo not drawn)	-12.2%
CCOC(=O)c1cccc(NC(=O)NCCc2c(C)nn(C)c2C)c1	6.97%
Cn1c(=O)c2sccc2n2c(CCC(=O)N3CCN(c4ccccc4)CC3)nnc12	13.8%
CCC(=O)Nc1sc2c(c1C(=O)Nc1ccccc1C)CCC(C)C2 (stereo not drawn)	-8.55%
Cc1ccc(-n2nc3ccc(NC(=O)c4cc5ccccc5o4)cc3n2)cc1	19%
Cc1ccc(N2CC(c3nnc(NC(=O)c4ccco4)s3)CC2=O)cc1Cl (stereo not drawn)	16%
O=S(=O)(c1ccc(Br)cc1)c1nnn2c1nc(NC1CCCCCC1)c1sccc12	7.26%
CCOc1ccc(CNC(=O)CCC(=O)N2CC3CCCN3c3ccccc32)cc1 (stereo not drawn)	16%
CCc1nc2cccnc2n1-c1ccc(CC(=O)Nc2ccccc2Cl)cc1	10.4%
CC1CCCN(CCCOc2ccccc2-c2ccccc2)C1 (stereo not drawn)	active: 73.4%
COc1ccc(Cl)cc1NC(=O)c1cc(S(=O)(=O)N2CCC(C)CC2)cn1C	12.3%
CCN1CCN(C(c2cccc(F)c2)c2c(O)cc(C)n(CCOC)c2=O)CC1 (stereo not drawn)	6.73%
Cc1cccc(NC(=O)CSc2nc3c(oc4ccccc43)c(=O)n2Cc2ccco2)c1	-4.92%
Cc1cc(NS(=O)(=O)c2ccc3nc(-c4ccccc4)[nH]c3c2)ccc1Br	17%
CC(C)C(=O)Nc1ccc2nc(SCC(=O)N3CCOCC3)sc2c1	-0.574%
Cc1ccc(C)n1-c1nnc(N2CCC(C(=O)NCc3ccc(F)cc3)CC2)s1	11.2%
COc1ccccc1-c1noc(CSc2nnc(Cc3ccccc3)n2-c2ccc(C)c(C)c2)n1	-2.37%

SMILES	inhibition
CCOC(=O)c1c(N)n(-c2ccccc2CC)c2nc3ccccc3nc12	-4.84%
CC(C)c1nc2ccc(C(=O)NCc3ccc(N(C)C)cc3)cc2o1	-16.4%
Cc1ccc(-n2nc3c(=O)n(CCCC(=O)NCCc4ccccc4)nc(C)c3c2C)cc1	0.485%
Cc1cccc(CCNC(=O)CCS(=O)(=O)c2cc3c(cc2Cl)NC(=O)CO3)c1	7.83%
COc1ccc(C)cc1Nc1nc2ccccc2c2nnc(C)n12	7.26%
CSc1ccc(C2c3[nH]c4ccccc4c3CCN2C(=O)CCc2ccccc2)cc1 (stereo not drawn)	-6.96%
COc1ccc(-c2cn3cccnc3n2)cc1NC(=O)c1c(F)cccc1F	10.7%
COc1cccc(CNC(=O)C2CCN(S(=O)(=O)c3ccc4c(ccn4C)c3)CC2)c1	-17.5%
COc1cc(Cl)c(C)cc1NC(=O)CCn1c(=O)c2cccn2c2cccnc21	1.18%
CCn1c(=O)c2cc(C(=O)N(CCCOC(C)C)Cc3ccco3)sc2c2ccccc21	6.05%
Cc1ccc(-c2sc(C(=O)Nc3ccc(Br)cc3)cc2CC(=O)O)cc1	7.8%
Cc1cc(C)c(NC(=O)Cn2c(SCC(=O)NCc3ccccc3)nc3ccccc32)c(C)c1	-8.95%
COc1ccc(N2C(=O)CSC2c2cccc(OC)c2OC)cc1 (stereo not drawn)	active: 50.7%
CC(=O)c1cccc(NC(=O)Cn2c(=O)c(CNc3ccc(C)cc3)cc3cc4c(cc32)OCCO4)c1	10.8%
COc1ccccc1C(=O)Nc1ccc2nc(N3CCC(C)CC3)cc(C)c2c1	22.7%
CCOc1ccccc1NS(=O)(=O)c1c(C)nc2sccn2c1=O	13.7%
Cc1c(C(=O)N2CCC(C)CC2)c(S(=O)(=O)NCc2ccccc2)c(C)n1C	-13.8%
COc1ccc(Nc2ncnc3c2cnn3-c2ccc(C)cc2C)cc1	-5.36%
Cc1nn(C(=O)c2ccccc2F)c(C)c1S(=O)(=O)N1CCOCC1	-1.84%
COc1cccc(CC(=O)Nc2ccc3nc(N4CCC(C)CC4)cc(C)c3c2)c1	-1.96%
COc1ccc(NC(=O)CSc2nc3c([nH]c4ccccc43)c(=O)n2C)cc1	4.15%
Nc1c(C(=O)Nc2ccccc2Cl)c2ccccn2c1C(=O)c1ccc(Cl)cc1	-1.29%
Cc1ccc(CNC(=O)CSc2ncc(S(=O)(=O)c3ccc(Br)cc3)c(=O)[nH]2)cc1	-6.08%
COc1ccc(NS(=O)(=O)c2ccc3c(c2)C(C(C)C)C(=O)N3)cc1 (stereo not drawn)	2.73%
